The other results are listed elsewhere or left out.
Tested on: PfAP2-HC AP2 domain (GST-tagged)
Test: gcPBM binding intensity (ln(normalized median fluorescence intensity)); higher = stronger DNA binding
Procedure, shortened: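 Using an Agilent 4 × 180k array, primer-extended double-stranded 36-bp intergenic genomic probes and negative controls were exposed for 1 h to GST-fused P. falciparum DNA-binding domains expressed in E. coli. Binding was carried out in 1× PBS with 1% milk, 0.2 mg/ml BSA, 0.5% salmon testes DNA and 0.03% Triton X-100, and protein was detected with Alexa488 anti-GST antibody and a 488 nm scan. Binding intensity is the highest Masliner-normalised natural-log median intensity across replicate spots of either probe orientation.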

Sequence	gcPBM binding intensity (ln)
AATAAATATATTACATATATGTGTAGTATTTTTTTA [TGCATGCA_negctrl_site268]	9.61
TAAGCTTGTAACAGTTTACACACTAATATTTATAAA [CACACA_site3907]	9.6
TTATTAAATTTTTTTTGTACTTATATATATATATAT [XGTACX_site2443]	9.88
TATGAATGTATATGTTGTACATATAAATATTTATAT [XGTACX_site1146]	9.73
ATTATTATATAGTGTGCATGCAATATTAATAAAACC [TGCATGCA_site245]	10
TATATTTACATTGTAACACACATGAAATATTTATAT [CACACA_site6178]	9.83
AGAATAAAAAGGAACACACACACACCCATATATATA [CACACA_site3590]	10.7
TATGTTATATTATAAGGATAAATTTTGATTATATAA [TGCATGCA_negctrl_site600]	9.33
ATGTACATTTTTTTCACACATACATTAATTTATGAG [CACACA_site5801]	9.65
TAGACTAATCCCAAAAGTACAGAAAAATTATATTAT [XGTACX_site8663]	9.5
TAATTTCTTATGTATTGTACATATAATATATGATAT [XGTACX_site4898]	9.71
AAAATAAATAGATAAGCACACAAGCATATAGACATA [CACACA_site7958]	10.4
AATATATTTATGCTCATGCACTTTTTTTTTTTTTTT [GTGCAC_site9654]	9.75
TATCAATATTAAAAAGTGCAAAATAAAATATAAAAT [GTGCAC_site9486]	9.98
TATATTATATATTGGGGTACATATATATAAATATAA [XGTACX_site2296]	9.41
TTATGTTGTAAATGCACACATACAAATACAGATACA [CACACA_site4876]	9.81
GAAAACAAATATGTAGCACACATTCACATAATATAT [CACACA_site8731]	10.1
ATTATAATGGTAAAGTGTACAAATTTTTATTACACC [XGTACX_site5274]	9.7
ATAAATATAAAAATTTGTACATATATAGGTATAGGT [XGTACX_site1735]	9.91

Sequence	gcPBM binding intensity (ln)
ACATACAAGAATTAAACACACACAAAATATAAATTC [CACACA_site8985]	10.9
TCTTGTATATACAGTAGTACTAAAAATTATTAAATA [XGTACX_site7896]	9.35
TGTTTTTTGTTCTTTACAAAAAAAAAAAAAAAAAAA [GTGCAC_negctrl_site61]	8.81
TTTATTTATTATTAAAGTACTAAATTACATTATTAT [XGTACX_site6624]	9.71
TATTTAATTACATGAACACACATTAGATATTTTTAA [CACACA_site7405]	9.45
CATTATTTACCGCCGTGTACGTAATGAGAAATTAAA [XGTACX_site4662]	9.44
TTATTTCAAATTAATTTACACACTTCATACTAAAAG [CACACA_site9039]	9.6
TAATAAAAAAAGTGCACACACATAATATTTATATAT [CACACA_site7548]	9.99
ATAACAATTATTTATCTACACACTTTTATGTTATTT [CACACA_site7886]	9.99
TAAATTTTTTTTTTGATGCACTTAGTTATTATATTT	9.61
AATGGCAAAATAGGCACACACACATATACAGATATA [CACACA_site4726]	10.6
ATATATATATATATATGTACATATAATTTTTTTTTT [XGTACX_site6948]	9.64
TTTATATTAATTTGTGTAAATGCATATGATGAGCAT [XGTACX_negctrl_site254]	9.41
AAAAATAAAACAATTACACACATAATTTTATTTTTA [CACACA_site928]	9.69
TCCAAAATATCCTTCACACACGAACAGTTTCATTTA [CACACA_site5511]	9.87
ATTAAGTCTTATATTACACACGACATTGTAATGTAA [CACACA_site528]	9.61
AATTTTTTATACACAAGTACAAACGCGTAGTCACTT [XGTACX_site2458]	9.6
ATTCCACTGTTTTAGTGTACTGGTCGTTTTTTTTTT [XGTACX_site1738]	9.89
AAATAAAGAATATAAATACACACTTAAATATATATT [CACACA_site4007]	9.91

Sequence	gcPBM binding intensity (ln)
TGGACCAAACGACAAAAAAAAAGCAGAAAACAAAAA [GTGCAC_negctrl_site693]	9.76
ATTTATATATTTATATGTACATATCTATACATATAT [XGTACX_site7580]	10.1
TTTTTAAAAAAAAAAAAATAAAAAAAAAAAAAATAT [XGTACX_negctrl_site7]	9.38
GAATTTTTGACGATATAGGAAATAATTATCCTGAAG [XGTACX_negctrl_site61]	9.3
CTGTTAATTATATATTGTACAAAAGATATGATTATA [XGTACX_site6927]	9.39
ACAAAAAAATAAAATATATATATATATATAATATAT [CACACA_negctrl_site805]	9.68
ATAATAAAATAAATCACACATAATATAATGTAATAT [CACACA_site6144]	9.74
ATAATAATAGTAATATGTACATATATATATATATAT [XGTACX_site7437]	10.3
ATAAAAAAAAGAAAAACACACACATATATATATATA [CACACA_site8243]	10.4
ATATATATATATATATGTACATATTTACATTTTGTA [XGTACX_site3529]	10.1
TATACACATTCGCGTTGTACAAAAAAAAAAAAAAAG [XGTACX_site2880]	9.59
AATAAAGGAGCCTATGAACACACACCGGTACATATA [CACACA_site9352]	10.6
AAGATGAACCTTTACACATGCAACAAAAAATATACA [TGCATGCA_site166]	9.53
ATCAACATTATGTTTAGTACTTAGTGAATTGTTAAT [XGTACX_site4913]	9.65
AATATTTCTATATGAACATGCAATGTATCTTTTTAT [TGCATGCA_site738]	9.6
TTTTTATGATTATACTTATATAATTTCATGATTGAA [CACACA_negctrl_site228]	9.4
AATACTTACCAAAATACACACACACCCAAAATATAT [CACACA_site8559]	10.3
TTCTAAATTAATAATACACACTTGCTAAAATCATTA [CACACA_site5733]	9.58

Source: the supplement of paper PMC11417369
